B1: LINE1-mini (parent)
chain: GGCAGAGCUCAACACAGCGUGGCAAAGUGGCUGUGGCUAGACUGCC

Read counts are not given, so values of variants with three or more changes are uncertain.

Variants of B1 are the subject of the data set. Nature of the data set: self-cleavage, relative activity (ratio to wild type); higher = more cleavage; in vitro, sequencing; the parent is a self-cleaving ribozyme.
For GGCAGAUGUCAACAUAGCGUGGCAAAGUGUCUGUGGCUAGACUGCC [G7U C8G C15U G30U], the self-cleavage worked out at 0.01.

As to GGCAGAUCUGAACACAACGUGGCAAAGUGGCUGUGGCUAGACUGCC [G7U C10G G17A], the self-cleavage is 0.02. For GGCAGAUCUCAACACCGCGUGGCAAAGUGGCUGUGGAUAGACUGCC [G7U A16C C37A] the value was 0.08. For GGCAGAUCUCAACACAGGGUGGCAAAGUGGCUGUGGCAAAACUGCC [G7U C18G U38A G40A] the value was 0.04; for GGCAGAUCUAAACACAGCGUGUCAAAGUGGCUGUGCCUAGACUUCC [G7U C10A G22U G36C G44U], 0.01; for GGCAGAUAUCAACUCAGCGUGGCAAACUGGCUGUGGCUAGACUGCC [G7U C8A A14U G27C], 0.14. For GGCAGAUGUCAACACAGCGUGGCAAAGUGGCUGUGGCGAGACUGCC [G7U C8G U38G] the value was 0.05; for GGCAGAUCUCUACACAGCGUGGCAAACUGGCUGAGGUUAGACUGCC [G7U A11U G27C U34A C37U], 0.01; for GGCAGAUCUCCACAAAGCGUGGCAAAGUGGCUGUGGCUAGACUGCC [G7U A11C C15A], 0.01. Consider GGCAGAUAUCUACAUAGCGUGGCAAAGUGGCUGUGGCUAGACUGCC [G7U C8A A11U C15U], for which the self-cleavage came out at 0.01. For GGCAGAUCUCAACACAGCGUGGCAAGGUGGCUAUGGCUAGACUGCC [G7U A26G G33A] the value was 0.03; for GGCAGAUCUCACCACAGGGUGGCAAAGUGGCUGUGGCUAGACUCCC [G7U A12C C18G G44C], 0.02; for GGCAGAUCUAAACACAGCGUAGCAAAGUGGCUGUGGCUAGACUGCC [G7U C10A G21A], 0.03. For GGCAGAUCUCAACACCGCGUUGCACAGUGGCUCUGACUACACUGCC [G7U A16C G21U A25C G33C G36A G40C], the self-cleavage came to 0.01. For GGCAGAUCUCAACUUAGCGUGGCAAAGUGGCUGUGGCUAGACUGCC [G7U A14U C15U] the value was 0.26; for GGCAGAUCUCAUCACCGCGUUUAAAAGUGGCGGUGGCUAGACUGCC [G7U A12U A16C G21U G22U C23A U32G], 0.01. For GGCAGAUCUCGACACAGCGUGGCAAAGUGUCUGUGGCUAGACUGCC [G7U A11G G30U] the value was 0.02; for GGCAGAUCUCAGCACAGCGUGGCAAAAUGGCUGUGGCUAGACUGCC [G7U A12G G27A], 0.01; for GGCAGAUCUCACCACAGCGAAGCAUAGGGGCUGUGGCUAGACUGCC [G7U A12C U20A G21A A25U U28G], 0.02. For the variant GGCAGAUCUAAACACAGCGUGGUAAAGUGGCUUUGGCUAGACUACC [G7U C10A C23U G33U G44A], the self-cleavage was found to be 0.01.

As for GGCAGAUCUCAACGCAGCGUGGCAAAGUGGCUGUGGCUAGACUCCC [G7U A14G G44C], the self-cleavage amounted to 0.08. Consider GGCAGAUCUCACCUCAGCGUGACAAAGUGGCUGUAGCUAGACUGCC [G7U A12C A14U G22A G35A], for which the self-cleavage came out at 0.04. For GGCAGAUCUCAACACUGCGUGGCAAAGUGGUAGAGGCUAGACUUCC [G7U A16U C31U U32A U34A G44U] the value was 0.08; for GGCAGAUCUCAACACAGCGUGGCAGAGAGGCUGAGGCUAGACUGCC [G7U A25G U28A U34A], 0.06. For GGCAGAUCUUAACACAGCGUGGCCAAGUGGCUGUGACUAGACUGCC [G7U C10U A24C G36A] the value was 0.02; for GGCAGAUCUCAACACUGCGUGGCAAAGUGGCUGUGGCUAGACGGCC [G7U A16U U43G], 0.23; for GGCAGAUCUCAUCACAGCGUGGCAACGUGGCUGUGGCUAGACUGCC [G7U A12U A26C], 0.03. For GGCAGAUCUCACCACAGCGUGGCAAAGUGGCUGUGGCUAGCCUGCC [G7U A12C A41C] the value was 0.07; for GGCAGAUCUCAAUACAGCGUGGCAAAGUGGGAAUGGCCAGACUGCC [G7U C13U C31G U32A G33A U38C], 0.17. Take GGCAGAUCUCAACACAGAGUGGCAAAGUGGCUGGGGCUAGAGUGCC [G7U C18A U34G C42G]: the self-cleavage worked out at 0.02.

Take GGCAGAUCUCAACACGGCGUGGCAAAGUGGCCGUGGCUUGACUGCC [G7U A16G U32C A39U]: the self-cleavage was determined as 0. For GGCAGAUCUCAACACAGCGUGGGUAAGUGGCGAUGUCUAGACUGGC [G7U C23G A24U U32G G33A G36U C45G] the value was 0.1. For GGCAGAUCUCUACACCGCGUGGCACAGUGGCUGUGGCUAGACUGCC [G7U A11U A16C A25C] the value was 0.01; for GGCAGAUCUCAACACAGCGUGGAAAAGAGGCUGUGGCUAGACUGCC [G7U C23A U28A], 0.02; for GGCAGAUCUCAACACAGUGUGGCAAAGUGGCAGUGGCUAGACUGCC [G7U C18U U32A], 0.07. For GGCAGAUCUCAAUACAGCGUGGCAAAGUGGCUGUGGCUAGACUGUC [G7U C13U C45U] the value was 0.18.

Take GGCAGAUCUCAACACAGAGUGGCAAAGUGGCUGUGGCUAGGGUGCC [G7U C18A A41G C42G]: the self-cleavage stood at 0.41.

Take GGCAGAUCUCAACACGGCGUGGCAAAGUGGCUGUGACUAGACUGCC [G7U A16G G36A]: the self-cleavage was determined as 0.25.

Take GGCAGAUCUCUACACAGCGUGGCAAAGUUGCUGUGGCUAGACUGCU [G7U A11U G29U C46U]: the self-cleavage stood at 0.02.

GGCAGAUCUCAAUACAGCGUCGCAAAUUGGCUGUGGCUAGACUGCC [G7U C13U G21C G27U]: the self-cleavage is 0.06.

Turning to GGCAGAUCUCUACACAGCGUGGCAAAGUGGCUAUGGUUAGACUGCC [G7U A11U G33A C37U], the self-cleavage came out at 0.02. For GGCAGAUCUCAACACAGCGUGGAAAAGUGGCUGUGACUAGACUGCC [G7U C23A G36A] the value was 1.55; for GGCAGAUCUCAACACCCCGUGGCAAAGUGGCUGUGCCUAGACUGCC [G7U A16C G17C G36C], 0.05; for GGCAGAUCUCAACCCAGCGAGGCAAAGUGGCUGUGGCUAGACUGCC [G7U A14C U20A], 0.01.

GGCAGAUCUCAACGCAGCGUGGCAAAGUGGUUCUUGGGAGACUGCC [G7U A14G C31U G33C G35U C37G U38G]: the self-cleavage is 0. For GGCAGAUCUAAACACAGCGUGGCAAAGCGGCUGUGGCUAGACUGCC [G7U C10A U28C] the value was 0.03. For GGCAGAUAUCAACACAGCGUGACAAAGUGGCUGUGUCUAGACUGGC [G7U C8A G22A G36U C45G] the value was 0.58.

As to GGCAGAUCUCAACAAAGCGUGGCAAAGUGGCUGUGGCUAGAAUGCC [G7U C15A C42A], the self-cleavage came out at 0.02. For GGCAGAUCUCAACAUAGCGUGGGAAAGUGGAUGUGGCUAGACUGCC [G7U C15U C23G C31A] the value was 0.03; for GGCAGAUAUAAACACAGCGUGGCAAAGUGUCUGUGGCUAGACGGCC [G7U C8A C10A G30U U43G], 0; for GGCAGAUCUCAAUACAGCGUGGUAAUGUGGCUGUGGCUAGACUGCC [G7U C13U C23U A26U], 0.09. For GGCAGAUCUCUACACAGCGUAGCAAAGUGACUGUGGCUAGACUUCC [G7U A11U G21A G30A G44U] the value was 0.05; for GGCAGAUCUCAACCCAGUGUCGCAACGUGGCUGUGGCUAGACUGCC [G7U A14C C18U G21C A26C], 0.02; for GGCAGAUCUCAACAUAGCGUGGCAAAGUGGCUGUGGCUAUACUGCC [G7U C15U G40U], 0.16.

On to GGCAGAUCUCAAAAUAGCGUGGCAAAGUGGCUGUGGCUAGUGUGCC [G7U C13A C15U A41U C42G], for which the self-cleavage is 0.33. For GGCAGAUCUAAACACAGCGUGGCACAGUGGCUGUUGCUAGACUGCC [G7U C10A A25C G35U] the value was 0.02.
